In publication PMC4336329 (PLoS ONE, 2015):
Out of some 310,000 compounds screened, about 2,200 (0.71%) showed an effect of 50% or more. Effects have a minus sign here. Some of the results follow.

What follows are compounds tested against human ether-à-go-go-related gene (hERG) potassium channel (human, UniProt Q12809) (assay: primary screen, population patch clamp on CHO cells stably expressing hERG).
Sequence of human ether-à-go-go-related gene (hERG) potassium channel (Q12809 whole entry, looked up): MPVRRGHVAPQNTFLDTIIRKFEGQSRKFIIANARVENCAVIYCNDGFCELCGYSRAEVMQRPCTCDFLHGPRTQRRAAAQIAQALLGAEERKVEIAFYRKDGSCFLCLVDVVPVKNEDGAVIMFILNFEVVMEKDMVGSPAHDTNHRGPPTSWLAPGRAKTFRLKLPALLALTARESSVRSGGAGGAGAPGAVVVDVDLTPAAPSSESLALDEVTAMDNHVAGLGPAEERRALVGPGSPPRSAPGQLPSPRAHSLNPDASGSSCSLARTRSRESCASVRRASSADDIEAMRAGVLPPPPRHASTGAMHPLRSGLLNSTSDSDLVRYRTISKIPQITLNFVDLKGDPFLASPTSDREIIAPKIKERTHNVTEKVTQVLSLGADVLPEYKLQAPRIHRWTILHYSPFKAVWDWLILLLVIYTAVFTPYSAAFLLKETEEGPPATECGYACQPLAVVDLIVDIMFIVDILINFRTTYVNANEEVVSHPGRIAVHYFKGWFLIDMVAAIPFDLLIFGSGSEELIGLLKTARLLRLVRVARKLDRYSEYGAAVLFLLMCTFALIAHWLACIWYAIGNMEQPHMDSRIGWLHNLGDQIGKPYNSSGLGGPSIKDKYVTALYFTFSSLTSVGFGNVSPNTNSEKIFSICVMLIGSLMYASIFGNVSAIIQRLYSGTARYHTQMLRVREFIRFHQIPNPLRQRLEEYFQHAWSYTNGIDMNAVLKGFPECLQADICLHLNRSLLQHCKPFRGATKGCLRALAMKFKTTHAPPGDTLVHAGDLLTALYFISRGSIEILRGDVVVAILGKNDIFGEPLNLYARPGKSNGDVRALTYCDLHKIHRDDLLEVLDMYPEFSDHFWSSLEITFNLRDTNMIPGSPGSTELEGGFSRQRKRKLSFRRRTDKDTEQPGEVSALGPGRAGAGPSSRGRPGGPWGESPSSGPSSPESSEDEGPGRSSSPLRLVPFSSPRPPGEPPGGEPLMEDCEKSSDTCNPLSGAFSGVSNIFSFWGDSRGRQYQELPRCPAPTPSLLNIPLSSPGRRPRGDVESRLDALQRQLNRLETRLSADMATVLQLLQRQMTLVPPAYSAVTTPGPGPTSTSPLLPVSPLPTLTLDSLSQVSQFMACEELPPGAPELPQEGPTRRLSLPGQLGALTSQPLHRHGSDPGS
For `COC(=O)C1=C(N)OC2=C(C(=O)CCC2)C1c1ccc2c(c1)OCO2` (stereo not shown), the “hERG current change (%, negative = inhibition) at 1uM” value was 16.8%. In the case of `CN(CC(=O)Nc1ccc(Cl)cc1)CC(=O)Nc1cccc(Br)c1`, the “hERG current change (%, negative = inhibition) at 1uM” value is reported as 6.58%. `CCCc1cc(Nc2cccc(OCC)c2)n2ncnc2n1` was tested, and the “hERG current change (%, negative = inhibition) at 1uM” value was -26%. With `Brc1ccc(-c2csc(N3CCC(c4ccccc4)C3)n2)cc1` (stereo not shown) the “hERG current change (%, negative = inhibition) at 1uM” value was -6.94%. With `O=c1c2[nH]c3ccc(F)cc3c2nc2n1CCS2` the “hERG current change (%, negative = inhibition) at 1uM” value was 15.6%. In the case of `Cc1occc1C(=O)NNC(=O)c1ccccc1F`, the “hERG current change (%, negative = inhibition) at 1uM” value is reported as 8.78%. `CC(=O)OCCNc1nc(-c2ccccc2)nc2ccccc12` was tested, and the “hERG current change (%, negative = inhibition) at 1uM” value was 5.35%. In the case of `CCN(CC(=O)Nc1ccc(Br)cc1)C(=O)Cc1cccc(F)c1`, the “hERG current change (%, negative = inhibition) at 1uM” value is reported as 1.16%. For `C=C1CCN([C@@H](Cc2ccccc2)C(=O)NCCCc2ccccc2)S(=O)(=O)c2ccccc21`, the “hERG current change (%, negative = inhibition) at 1uM” value was 2.78%. For `CCCCCn1c(SCCC(C)C)nc2c1c(=O)[nH]c(=O)n2C`, the “hERG current change (%, negative = inhibition) at 1uM” value was 7.97%. With `CC1=C(C)C(=O)N(CCC(=O)O)C1=O` the “hERG current change (%, negative = inhibition) at 1uM” value was 10.9%. In the case of `COc1cc(NC(=O)N[C@@H](Cc2ccccc2)C(=O)O)cc(OC)c1`, the “hERG current change (%, negative = inhibition) at 1uM” value is reported as -2.98%. With `CCCc1cc(=O)oc2c(CN(CC)CC)c(O)c(Cl)cc12` the “hERG current change (%, negative = inhibition) at 1uM” value was -7.25%. For `Cc1cccc(N2CCc3c2nc2ccccc2c3N)c1.Cl`, the “hERG current change (%, negative = inhibition) at 1uM” value was -13.8%. In the case of `CCNC(=O)c1oc2c(c1C)C(=O)CC(C)(C)C2`, the “hERG current change (%, negative = inhibition) at 1uM” value is reported as 11.2%. `O=C(N/N=C/c1cccc([N+](=O)[O-])c1)c1c[nH]c2ccccc12` was tested, and the “hERG current change (%, negative = inhibition) at 1uM” value was 5.45%. `CC(C)C(c1nnnn1Cc1cccs1)N1CCN(C(=O)c2ccco2)CC1` (stereo not shown) was tested, and the “hERG current change (%, negative = inhibition) at 1uM” value was -1.53%. For `CCOc1ccc(C(=O)c2ccc([N+](=O)[O-])cc2Cl)cc1`, the “hERG current change (%, negative = inhibition) at 1uM” value was 9.02%. `Cc1ccc(NC(=O)CSc2nnc3ccccn23)cc1S(=O)(=O)N1CCOCC1` was tested, and the “hERG current change (%, negative = inhibition) at 1uM” value was 9.86%. For `O=C(CCc1ccccc1)Nc1cccnc1`, the “hERG current change (%, negative = inhibition) at 1uM” value was 11.9%. `CNC(=O)c1[nH]cnc1C(=O)Nc1ccccc1C` was tested, and the “hERG current change (%, negative = inhibition) at 1uM” value was 12.8%. With `CCOc1ccc(NC2OCC(O)C(O)C2O)c([N+](=O)[O-])c1` (stereo not shown) the “hERG current change (%, negative = inhibition) at 1uM” value was 9.59%. In the case of `CCCCN(C(=O)CSCC(=O)Nc1ccc(C)cc1)c1c(N)n(CCCC)c(=O)[nH]c1=O`, the “hERG current change (%, negative = inhibition) at 1uM” value is reported as 11.1%. With `CCC(C)(C)NC(=O)C(c1ccc(OC)cc1)N(C(=O)CCC(=O)Nc1cc(C)on1)C(C)(C)C` (stereo not shown) the “hERG current change (%, negative = inhibition) at 1uM” value was 5.18%. In the case of `CC1CN(CC(=O)Nc2ccccc2Sc2ccccc2)CC(C)O1` (stereo not shown), the “hERG current change (%, negative = inhibition) at 1uM” value is reported as -7.58%. For `CC(NC(=O)CSc1ncccn1)c1ccccc1` (stereo not shown), the “hERG current change (%, negative = inhibition) at 1uM” value was 3.48%. In the case of `O=C1Nc2ccccc2C1Cc1nc2ccccc2c(=O)n1-c1ccccc1` (stereo not shown), the “hERG current change (%, negative = inhibition) at 1uM” value is reported as 13.6%. For `COc1cccc(N2CCN(C(=O)c3cn(Cc4ccccc4)nc3-c3cccnc3)CC2)c1`, the “hERG current change (%, negative = inhibition) at 1uM” value was 0.728%. For `Cc1ccc(/C(O)=C2/C(=O)C(=O)N(Cc3cccnc3)C2c2ccccn2)cc1` (stereo not shown), the “hERG current change (%, negative = inhibition) at 1uM” value was 12.5%. `COc1cccc(CSc2ccc(S(=O)(=O)N3CCOCC3)cc2C(=O)NCC2CCCO2)c1OC` (stereo not shown) was tested, and the “hERG current change (%, negative = inhibition) at 1uM” value was 9.75%. `O=C(O)CSCC(=O)N1CCN(S(=O)(=O)c2cc(Cl)cc(Cl)c2)CC1` was tested, and the “hERG current change (%, negative = inhibition) at 1uM” value was 13.5%. With `O=c1c2ccccc2nc(COc2ccccc2)n1/N=C/c1c[nH]c2ccccc12` the “hERG current change (%, negative = inhibition) at 1uM” value was 21.6%. With `COc1ccc2nc(NC(=O)c3ccc(Br)s3)sc2c1` the “hERG current change (%, negative = inhibition) at 1uM” value was 17.7%. With `Br.CCCCCCn1c2c(c(=N)c3c1CCC3)CCC2` the “hERG current change (%, negative = inhibition) at 1uM” value was -54%. `CCO[C@H]1OC(C(=O)O)=C[C@@H](C2CC2)[C@@H]1CCCO` was tested, and the “hERG current change (%, negative = inhibition) at 1uM” value was 8.98%. In the case of `CCCCn1nnnc1NCc1cccs1`, the “hERG current change (%, negative = inhibition) at 1uM” value is reported as -5.45%. With `N#C/C(=C\c1ccc(N2CCOCC2)o1)c1ccccc1` the “hERG current change (%, negative = inhibition) at 1uM” value was 14.7%. For `O=C1S/C(=C/c2ccccc2)C(=O)N1CC(O)Cn1c2ccccc2c2ccccc21` (stereo not shown), the “hERG current change (%, negative = inhibition) at 1uM” value was 10.4%. With `O=C1c2ccccc2-n2c1nc1ccccc1c2=O` the “hERG current change (%, negative = inhibition) at 1uM” value was 13%. In the case of `CCN1C=C(C(=O)OC)C(c2cccc(OC)c2OC)C(C(=O)OC)=C1`, the “hERG current change (%, negative = inhibition) at 1uM” value is reported as 8.22%. For `CN(C)c1ccnc(-n2cccc2/C=N/OCc2ccc(F)cc2Cl)c1C#N`, the “hERG current change (%, negative = inhibition) at 1uM” value was 8.59%. `COC(=O)c1[nH]c2cccc(Cl)c2c1NC(=O)CN1CCCCC1C` (stereo not shown) was tested, and the “hERG current change (%, negative = inhibition) at 1uM” value was 9.88%. `COc1cc(NC(=O)CN2CCC(C)CC2)c(C)cc1[N+](=O)[O-]` was tested, and the “hERG current change (%, negative = inhibition) at 1uM” value was 10.6%. With `COC(=O)c1sccc1NC(=O)Nc1ccc(OC)cc1` the “hERG current change (%, negative = inhibition) at 1uM” value was 13.1%. For `CC(C)Cc1nnc(NC(=O)CCC(=O)N2CCC(C)CC2)s1`, the “hERG current change (%, negative = inhibition) at 1uM” value was 7.51%. For `Cc1ccc(CC2CC(=O)N(C(Cc3ccccc3)C(=O)O)C2=O)cc1` (stereo not shown), the “hERG current change (%, negative = inhibition) at 1uM” value was 16.8%. In the case of `CCOc1ccc(CCNC(=O)COC(=O)/C=C/c2ccco2)cc1OCC`, the “hERG current change (%, negative = inhibition) at 1uM” value is reported as 15.9%. With `Cc1ccc(NC(=O)C(Cc2ccccc2)NC(=O)OCc2ccccc2)cc1C` (stereo not shown) the “hERG current change (%, negative = inhibition) at 1uM” value was 3.75%. `O=C(NCC(=O)N(c1ccccc1)C(C(=O)NC1CCCCC1)c1ccncc1)c1ccco1` (stereo not shown) was tested, and the “hERG current change (%, negative = inhibition) at 1uM” value was 7.91%. With `CCN1CCN(Cc2ccc(NC(=O)Nc3ccccc3Cl)cc2)CC1` the “hERG current change (%, negative = inhibition) at 1uM” value was 5.87%. For `Cc1ccc(C(=O)O/N=C/c2c(Cl)n(C)c3ccccc23)cc1`, the “hERG current change (%, negative = inhibition) at 1uM” value was 7.26%. `COc1ccc(NC(=O)N2CCc3cc(OC)c(OC)cc3C2)cc1` was tested, and the “hERG current change (%, negative = inhibition) at 1uM” value was 9.53%. `CCCCN1CC[C@H]2C=CC[C@@H](C(=O)N3CCOCC3)[C@H]2C1=O` was tested, and the “hERG current change (%, negative = inhibition) at 1uM” value was 19.6%. For `Cc1nc2c3ccccc3nc(NNC(=O)CCC(=O)NC3CCCC3)n2n1`, the “hERG current change (%, negative = inhibition) at 1uM” value was -25.4%. In the case of `C=CCNC(=O)c1onc(CSc2ccc(F)c(F)c2)c1C(=O)O`, the “hERG current change (%, negative = inhibition) at 1uM” value is reported as 24.7%. For `CC1=[N+](C)N(c2ccccc2)C(=O)C1N=Cc1c(Cl)cccc1Cl` (stereo not shown), the “hERG current change (%, negative = inhibition) at 1uM” value was -6.43%. For `O=c1c2ccccc2nc(-c2ccco2)n1-c1ccc(Br)cc1`, the “hERG current change (%, negative = inhibition) at 1uM” value was 9.62%. `O=C1/C(=C\c2cc([N+](=O)[O-])ccc2O)SC(=S)N1Cc1ccc(Cl)cc1` was tested, and the “hERG current change (%, negative = inhibition) at 1uM” value was 27.5%.
